# Screen size: about 320,000 compounds; about 7,600 (2.4%) were called active. The shares of active, inactive and inconclusive entries below differ from those in the screen. Calls come from the whole dose curve; as a rule, active = well fitted activation curve with a large enough effect; inconclusive = small, poorly fitted or top-dose-only effect; inactive = no such curve, though single readings can be large or run the other way. No potency is given beside an inconclusive call; the fits are too rough.
# Assay: qHTS Assay for NPC1 Promoter Activators; note: nearly all actives have a fitted effect of over 60% in size; for activation: % of control where 0% means no effect
# Settings: Huh7 NPC1 promoter luciferase reporter, 24 h; series mostly up to 9.22 µM; activation: at the top concentration
# Procedure, shortened: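 Luciferase expression driven by the NPC1 promoter was measured in stably transfected Huh7 cells after a 24 h compound incubation, using a luciferase reagent and a luminescence read.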
# Potency is the fitted concentration of half-maximal effect; tags give direction and shape of the fitted curve.
SMILES,Potency,activation
Cc1cccc(-n2c(C)cc(C(=O)NC3CCCCC3)c2C)c1,"inconclusive [activator, partial curve]",
Cc1ccc2c(c1)N=C(c1ccccc1)CC(C(Cl)Cl)=N2,"inconclusive [activator, partial curve]",
CCOc1ccc2oc(C(=O)NCC3CCCO3)c(C)c2c1 (stereo not given),"inconclusive [activator, single point]",
COc1ccc(-c2noc(-c3ccoc3C)n2)cc1,active: 2820 nM,
Cc1ccc(C(=O)OCC(=O)c2ccc(CC(=O)N3CCOCC3)s2)c(C)c1,,inactive: 1.48%
CCc1nnc(NC(=O)c2ccc(C)o2)s1,"inconclusive [activator, partial curve]",
CC(C)c1ccc(OCc2ccc(C(=O)N3CCCC3)o2)cc1,"inconclusive [activator, partial curve]",
CC(C)CC(=O)c1c[nH]c(C(=O)N2CCN(Cc3ccccc3)CC2)c1,,inactive: -6.11%
O=C(NCCc1ccc(Cl)cc1)c1ccc(OCC2CCCO2)cc1 (stereo not given),"inconclusive [activator, single point]",
CCOc1ccc(OCCCC(=O)N2CCN(S(=O)(=O)c3ccc(Cl)cc3)CC2)cc1,,inactive: -1.35%
Fc1ccc(C2Nc3cccc4cccc(c34)N2)cc1,"inconclusive [activator, partial curve]",
COc1ccc(N2CCN(CCCNC(=O)Cn3c(=O)c4cccn4c4ccccc43)CC2)cc1,,inactive: 1.82%
CN=C1S/C(=C\c2cc(C)n(-c3ccccc3F)c2C)C(=O)N1C,"inconclusive [activator, full curve]",
CCOC(=O)CCSc1nc(C)c2cc(OC)ccc2n1,"inconclusive [activator, partial curve]",
CCOc1ccc(C(=O)Nc2ccc(S(=O)(=O)N3CCOCC3)cc2)cc1OCC,,inactive: 15.2%
Cn1nccc1C(=O)Nc1ccc2c(c1)OCO2,"inconclusive [activator, partial curve]",
CCc1nnc(NC(=O)/C=C/c2ccco2)s1,"inconclusive [activator, partial curve]",
CCCCOc1ccc(-c2ncc(C(=O)O)c(C)n2)cc1,active: 501 nM,
CSc1ccc(-c2ccco2)nn1,"inconclusive [activator, partial curve]",
CN1CCN(c2ccc(C(=O)c3ccc(F)cc3)cc2)CC1,"inconclusive [activator, partial curve]",
CCOc1ccc2nc(N3C(=O)CNC3=S)sc2c1,active: 708 nM,
COC(=O)c1ccc(NC(=O)Nc2ccc(OC)cc2)cc1,,inactive: 7.68%
CC1CCCC(NC(=O)c2ccc3c(c2)OCO3)C1C (stereo not given),"inconclusive [activator, partial curve]",
COc1cccc(C(=O)Nc2cccc(-c3ccc(N4CCOCC4)nn3)c2)c1OC,active: 3550 nM,
COc1ccc(NC(=O)N2CCCc3ccccc32)c(OC)c1,,inactive: 0.343%

SMILES,Potency,activation
CCOC(=O)C1CCN(C(=O)c2cc(S(=O)(=O)N3CCc4ccccc43)ccc2OC)CC1,,inactive: -5.09%
O=C(NNC(=S)NC1CCCCC1)c1ccc2c(c1)OCO2,"inconclusive [activator, partial curve]",
C=CCNC(=O)C1CC(=O)N(c2ccc(OCc3ccccc3Cl)cc2)C1 (stereo not given),"inconclusive [activator, partial curve]",
O=C(Nc1nc2ccc(F)cc2s1)C1=COCCO1,active: 708 nM,
C/C(=N\Nc1cccc(C(=O)O)c1)c1ccc2c(c1)Nc1ccccc1S2,"inconclusive [activator, partial curve]",
Cc1ccc(C(=O)Nc2cccc(C(=O)N/N=C/c3ccccc3F)c2)cc1,active: 2000 nM,
Cc1ccc2c(CN(C)Cc3cccc(F)c3)cc(=O)oc2c1,"inconclusive [activator, partial curve]",
CCN(CC)C(=O)Oc1ccc2c(=O)c(-c3ccc(OC)cc3)coc2c1,active: 1780 nM,
Cc1ccc(Cl)c(OCC(=O)Nc2cccnc2)c1,"inconclusive [activator, partial curve]",
CCCNC(=O)CS(=O)(=O)c1ccccc1,,inactive: 2.51%
CCn1c(-c2ccccc2)csc1=Nc1ccc(S(=O)(=O)O)cc1,"inconclusive [activator, partial curve]",
Cc1sc2nc3ccc(N4CCCC4)nn3c(=O)c2c1C,"inconclusive [activator, partial curve]",
COc1ccc2cc(C(=O)NCc3ccco3)c(=O)oc2c1,"inconclusive [activator, single point]",
CCC(C)c1ccc(-c2cc(C(=O)OCC(=O)Nc3cc(C)on3)c3ccccc3n2)cc1 (stereo not given),"inconclusive [activator, full curve]",
CN(/N=C/c1ccncc1)c1cnc2ccccc2n1,"inconclusive [activator, single point]",
CCOC(=O)c1cc2c(C)n(-c3ccc(OCC)cc3)c(C)c2ccc1=O,,inactive: 0.529%
O=C(CNC(=O)c1cn2ccccc2n1)Nc1ccc(F)c(F)c1,"inconclusive [activator, partial curve]",
Cc1c(Cl)cccc1NC(=O)CNC(=O)CCS(=O)(=O)c1ccc(F)cc1,,inactive: -0.0189%
Cc1cccc(C)c1N(CC(=O)N1CCCC1)S(C)(=O)=O,"inconclusive [activator, single point]",
CNc1cnn(-c2ccc(C)cc2)c(=O)c1Cl,active: 1580 nM,
Cc1ccc(-n2cc(-c3ccccc3)[nH]c2=O)cc1F,active: 3160 nM,
Cc1ccc(CCNC(=O)NC(C)(C)C)cc1,"inconclusive [activator, partial curve]",
Brc1ccc(OCc2nc3ccccc3[nH]2)cc1,active: 3160 nM,
CCC(=O)Nc1cccc(NC(=S)NC(=O)c2cccc(C)c2)c1,active: 3160 nM,
O=C(Nc1ccccn1)c1csc2c1CCCC2,"inconclusive [activator, single point]",

# — PubChem BioAssay AID485313 (National Center for Advancing Translational Sciences (NCATS), 2010)
